# Test results taken from PubChem BioAssay AID1460 (National Center for Advancing Translational Sciences (NCATS), 2008).
# Values joined by “and” are separate entries in the source; they are usually repeats but may differ in a detail not shown here. Equal values may be shown once. Hit rate of the full screen: of about 270,000 compounds, about 5,800 (2.1%) were called active. Inconclusive means that the source gave no clear call. Such entries were picked first, then a sample of the others. Calls follow the shape of the dose curve; as a rule, active = well fitted inhibition curve with a large enough effect; inconclusive = small, poorly fitted or top-dose-only effect; inactive = flat fitted curve, though single readings scatter. Potencies of inconclusive entries are doubtful fits and often do not repeat.
# Biological target: Microtubule-associated protein tau (Homo sapiens) (UniProt P10636)
# Assay: qHTS for Inhibitors of Tau Fibril Formation, Thioflavin T Binding; also: nearly all actives have a fitted effect of over 55% in size
# Conditions: recombinant tau K18 P301L (four-repeat tau fragment), heparin-induced fibrillization, ThT fluorescence; series mostly up to 57.4 µM
# In short: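 Recombinant human tau K18 fragment […] carrying P301L, 15 uM unlabeled plus 0.24 uM Alexa 594-labeled, was fibrillized with 20 uM heparin in 100 mM sodium acetate pH 7 for 6 hr at 37 C; 30 uM ThT fluorescence read after 1 hr.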
# % is scaled to controls: 0 for no effect and ±100 for the full control effect; potency is read from the fitted curve at half-maximal effect; tags tell the direction and shape of the fitted curve.
# Sequence of UniProt P10636 (P10636 whole entry, looked up): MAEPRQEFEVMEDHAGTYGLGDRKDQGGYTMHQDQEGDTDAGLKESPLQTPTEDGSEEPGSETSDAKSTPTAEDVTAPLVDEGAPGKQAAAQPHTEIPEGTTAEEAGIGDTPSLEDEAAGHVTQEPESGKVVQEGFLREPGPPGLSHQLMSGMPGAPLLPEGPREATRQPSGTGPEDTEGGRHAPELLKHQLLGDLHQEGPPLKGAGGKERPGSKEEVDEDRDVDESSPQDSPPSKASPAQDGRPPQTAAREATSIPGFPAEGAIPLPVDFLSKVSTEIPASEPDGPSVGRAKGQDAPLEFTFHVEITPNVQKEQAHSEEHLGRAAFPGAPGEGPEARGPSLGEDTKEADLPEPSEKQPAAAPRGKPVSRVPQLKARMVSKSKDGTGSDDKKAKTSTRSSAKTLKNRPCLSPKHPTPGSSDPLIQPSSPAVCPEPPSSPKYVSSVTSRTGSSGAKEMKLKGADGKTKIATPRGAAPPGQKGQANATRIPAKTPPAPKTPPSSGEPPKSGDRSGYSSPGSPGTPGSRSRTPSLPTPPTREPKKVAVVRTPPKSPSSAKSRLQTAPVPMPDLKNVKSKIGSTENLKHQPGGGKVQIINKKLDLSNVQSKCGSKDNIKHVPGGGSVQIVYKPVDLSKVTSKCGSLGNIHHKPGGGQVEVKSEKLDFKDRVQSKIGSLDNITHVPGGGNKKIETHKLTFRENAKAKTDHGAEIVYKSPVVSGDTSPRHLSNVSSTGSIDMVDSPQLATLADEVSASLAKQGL
Compound,Potency,"activity, negative = inhibition"
O=C(NNc1ccc([N+](=O)[O-])cc1)c1ccccc1F,"inconclusive: 17.8 µM [inhibitor, partial curve]",
CC(C)n1cc(-c2nc(C(=O)NN)cs2)c(=O)n(Cc2ccccc2)c1=O,"inconclusive: 39.8 µM [inhibitor, single point]",
CCOC(=O)c1c(NC(=O)c2ccncc2)sc(C)c1C,"inconclusive: 14.1 µM [inhibitor, partial curve]",
CCC(C)(C)n1nnnc1C(c1ccc(O)cc1)N1CCc2ccccc2C1 (stereo not drawn),"inconclusive: 1.58 µM [inhibitor, partial curve, poor fit]",
COc1ccc(-c2cn3cc(C)ccc3n2)cc1OC,"inconclusive: 5.01 µM [inhibitor, full curve]",
COc1ccc(C=O)cc1COc1ccc(C)cc1[N+](=O)[O-],inactive,
CCn1c(C)c(C2N3CC4(C)CN2CC(C)(C3)C4=O)c2ccccc21 (stereo not drawn),inactive,
C=CCOc1c(Cl)cc(CNc2ccc(C)c(Cl)c2)cc1OC,"inconclusive: 22.4 µM [inhibitor, partial curve]",
COc1ccc(N2CCN(C(=O)c3ccc(C)cc3)CC2)c([N+](=O)[O-])c1,"inconclusive: 39.8 µM [inhibitor, single point]",
CS(=O)(=O)N(Cc1ccc(C(=O)NN=C2CCCC2)cc1)c1ccccc1,inactive,
O=C(Oc1ccc([N+](=O)[O-])cc1)c1ccc(Cl)c(S(=O)(=O)N2CCCCC2)c1,"inconclusive: 25.1 µM [inhibitor, single point]",
COc1ccc(C(=O)C2C3C4COC(O4)C(=O)C3C3C=Cc4ccccc4N32)c(OC)c1 (stereo not drawn),active: 20 µM,
N=C1C(c2nc(-c3ccc(Cl)cc3)cs2)=C(O)CN1NC(=O)c1ccc(O)cc1,"inconclusive: 25.1 µM [inhibitor, partial curve]",
Cc1ccccc1-c1nc(CN2CCC(C(=O)NCc3ccccc3Cl)CC2)c(C)o1,inactive,
Nc1n[nH]c(N)c1N=Nc1ccc(F)cc1,"inconclusive: 25.1 µM [inhibitor, partial curve]",
CC(c1ccccc1)n1cc(C(=O)NCc2ccccn2)nn1 (stereo not drawn),inactive,
O=C(/C=C/c1ccccc1)c1ccc2c(c1)OCO2,"inconclusive: 7.08 µM [inhibitor, partial curve]",
Cc1nnc(SCC(=O)NCCN2C(=O)CSC2=O)n1-c1ccccc1,inactive,
Cc1nn(-c2ccccc2)c(OC(=O)C(C)C)c1Sc1ccc(Cl)cc1,"inconclusive: 15.8 µM [inhibitor, partial curve]",
O=C(NCc1ccccn1)C1CN(S(=O)(=O)c2ccccc2)CCN1S(=O)(=O)c1ccccc1 (stereo not drawn),inactive,
CCCNC(=O)c1c(N)n(-c2ccc3c(c2)OCO3)c2nc3ccccc3nc12,"inconclusive: 15.8 µM [inhibitor, partial curve]",

Compound,Potency,"activity, negative = inhibition"
COc1cc(C(=O)Oc2c(Sc3ccccc3)c(C)nn2-c2ccccc2)cc(OC)c1OC,"inconclusive: 14.1 µM [inhibitor, partial curve]",
Cc1cc2c(nc1C)CCCN2C[C@H](O)CN1CCCc2nc(-c3ccc(Br)cc3)ccc21,"inconclusive: 5.01 µM [inhibitor, partial curve]",inactive: -2% [at 11.5 µM]
COc1cc(/C=N/N=C/c2cc(OC)c(O)c(OC)c2)cc(OC)c1O,"inconclusive: 10 µM [inhibitor, partial curve]",
CCOC(=O)c1ccc(N/C=C/C(=O)c2ccc(OC)c(OC)c2)cc1,"inconclusive: 2.82 µM [inhibitor, partial curve]",
COC(=O)C(Nc1nccs1)(OC)C(F)(F)F (stereo not drawn),"inconclusive: 22.4 µM [inhibitor, single point]",
O=C1[C@@H]2[C@H]3[C@H](O)[C@H](O)C/C(=N/OC[C@@H](O)COCc4ccco4)[C@@H]3CC[C@H]2C(=O)N1c1ccc(F)cc1F,,inactive: -7.55% [at 11.5 µM]
COc1ccc(N2C(=O)C(Cl)=C(Nc3c(C)n(C)n(-c4ccccc4)c3=O)C2=O)cc1,"inconclusive: 17.8 µM [inhibitor, partial curve]",
Cc1ccc(NC(=O)CCC(=O)N/N=C/c2coc3ccccc3c2=O)cc1,"inconclusive: 39.8 µM [inhibitor, single point]",
Cc1sc(Nc2ccc([N+](=O)[O-])cc2)nc1-c1c(C)n(C)n(-c2ccccc2)c1=O,"inconclusive: 2.82 µM [inhibitor, full curve]",
COc1ccc(S(=O)(=O)NC2(C(F)(F)F)N=C(c3ccccc3)NC2=O)cc1 (stereo not drawn),inactive,
O=C(NCc1ccco1)c1cnc2ccccn2c1=O,inactive,
CCOc1ccc(-c2nc(-c3ccc(OC)cc3)no2)cc1OCC,"inconclusive: 3.55 µM [inhibitor, full curve, poor fit]",
Cc1cc(C)c(NC(=O)Cn2c(=O)n(CC(=O)NCc3ccccc3Cl)c(=O)c3sccc32)c(C)c1,"inconclusive: 20 µM [activator, partial curve, poor fit]",
COc1ccc(OCCNC(=O)/C=C/c2ccc([N+](=O)[O-])cc2)cc1,"inconclusive: 15.8 µM [inhibitor, partial curve]",
CCCCOC(=O)c1ccc(NC(c2ccc(C)cc2)P(=O)(OC)OC)cc1 (stereo not drawn),"inconclusive: 20 µM [inhibitor, single point]",
Cc1nc2scc(-c3cccs3)c2c(=O)o1,"inconclusive: 3.55 µM [inhibitor, full curve, poor fit]",
CC(C(=O)NC1CCCC1)N(C(=O)c1snc(C(N)=O)c1N)c1ccc2c(c1)OCCO2 (stereo not drawn),inactive,
Cc1cccc2nc(-c3ccco3)c(Nc3ccc4c(c3)OCO4)n12,"inconclusive: 15.8 µM [inhibitor, partial curve] and inconclusive: 39.8 µM [inhibitor, single point]",
CCCN(CCC)CCOc1cc(C)ccc1C(C)C,inactive,
CCOC(=O)N1CCN(S(=O)(=O)c2ccc(C(=O)NNc3nc4c(C)cc(C)cc4s3)cc2)CC1,inactive,
CCN(CC)c1cc(C)c2cc(NC(=O)c3cccc(OC)c3)ccc2n1,"inconclusive: 6.31 µM [inhibitor, partial curve]",
